The source of these data is article PMC12301659.

Chains of the proteins cited; added tags and fusions are not shown. Lines headed by an entry give the natural chain unless they say otherwise; changes in a name come on top.
UniProt P62258: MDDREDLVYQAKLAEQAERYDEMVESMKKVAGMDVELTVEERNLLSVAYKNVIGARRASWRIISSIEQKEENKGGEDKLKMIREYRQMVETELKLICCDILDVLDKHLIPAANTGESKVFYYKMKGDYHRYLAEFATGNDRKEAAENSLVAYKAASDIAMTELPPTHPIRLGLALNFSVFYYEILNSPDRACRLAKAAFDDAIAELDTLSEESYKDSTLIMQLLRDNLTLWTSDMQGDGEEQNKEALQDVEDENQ

One assay addresses GST–14-3-3ε (UniProt P62258). The experiment in a line: pull-down; GST or GST fusion proteins bound to glutathione beads incubated with HCT116 lysates (untransfected or transfected with Myc-tagged constructs) in EBC lysis buffer, 4–5 h at RT or 16 h at 4°C; washed three times with NET-N; western blot; only the target purified.
A further assay has as its target GST–14-3-3ε D127A (UniProt P62258). Described as above.
Another assay deals with GST–14-3-3ε E134A (UniProt P62258). The description is as above.
Assay [1] concerns the target 14-3-3ε (endogenous) (human (endogenous in HCT116)) (UniProt P62258). As to the kind of experiment: proximity ligation; Duolink PLA in fixed HCT116 cells transfected with Myc-tagged separase constructs; antibodies to Myc and (endogenous) 14-3-3ε; puncta per cell.

These are yes or no findings as the source states them, for the method shown. In cells and extracts the contact can be indirect. Some results given as binding are weak or reduced against the parent protein; the word gives no strength. For some of these results: Sequences can lack the tags named with a protein.

B1: Cdc25C, endogenous (enzyme, UniProt P30307 1-473)
chain: MSTELFSSTREEGSSGSGPSFRSNQRKMLNLLLERDTSFTVCPDVPRTPVGKFLGDSANLSILSGGTPKRCLDLSNLSSGEITATQLTTSADLDETGHLDSSGLQEVHLAGMNHDQHLMKCSPAQLLCSTPNGLDRGHRKRDAMCSSSANKENDNGNLVDSEMKYLGSPITTVPKLDKNPNLGEDQAEEISDELMEFSLKDQEAKVSRSGLYRSPSMPENLNRPRLKQVEKFKDNTIPDKVKKKYFSGQGKLRKGLCLKKTVSLCDITITQMLEEDSNQGHLIGDFSKVCALPTVSGKHQDLKYVNPETVAALLSGKFQGLIEKFYVIDCRYPYEYLGGHIQGALNLYSQEELFNFFLKKPIVPLDTQKRIIIVFHCEFSSERGPRMCRCLREEDRSLNQYPALYYPELYILKGGYRDFFPEYMELCEPQSYCPMHHQDHKTELLRCRSQSKVQEGERQLREQIALLVKDMSP
Regarding B1, the binding result with GST–14-3-3ε, with GST–14-3-3ε D127A and with GST–14-3-3ε E134A was “binds” each time.

B2: Myc-tagged separase auto-catalytic domain (AC) (domain or fragment, UniProt Q14674 1141-1650)
chain: SHSPTCDCSLCASPVLTAVCLRWVLVTAGVRLAMGHQAQGLDLLQVVLKGCPEAAERLTQALQASLNHKTPPSLVPSLLDEILAQAYTLLALEGLNQPSNESLQKVLQSGLKFVAARIPHLEPWRASLLLIWALTKLGGLSCCTTQLFASSWGWQPPLIKSVPGSEPSKTQGQKRSGRGRQKLASAPLRLNNTSQKGLEGRGLPCTPKPPDRIRQAGPHVPFTVFEEVCPTESKPEVPQAPRVQQRVQTRLKVNFSDDSDLEDPVSAEAWLAEEPKRRGTASRGRGRARKGLSLKTDAVVAPGSAPGNPGLNGRSRRAKKVASRHCEERRPQRASDQARPGPEIMRTIPEEELTDNWRKMSFEILRGSDGEDSASGGKTPAPGPEAASGEWELLRLDSSKKKLPSPCPDKESDKDLGPRLRLPSAPVATGLSTLDSICDSLSVAFRGISHCPPSGLYAHLCRFLALCLGHRDPYATAFLVTESVSITCRHQLLTHLHRQLSKAQKHRGSL
As for B2, in assay [1], the binding entry is reported as “binds”.
